Data published in the supplement of paper PMC10369915.
The list shows a part of the results. Cut-off read from the data, not from the text of the source: active = 3.2 or more and inactive = the rest. Only a few entries rise above the background.

Target: SHP2 C-SH2 domain E139D
Assay: enrichment score (SH2-bound / input frequency) (ratio); bacterial display of known human phosphotyrosine sites (pTyr-Var adds point mutants) read by sequencing; higher = stronger binding; tyrosines were phosphorylated by kinases first
Conditions: peptide library: pTyr-Var
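Note: displayed peptides selected on beads carrying the immobilized SH2 domain, with library peptides lacking any tyrosine serving as negative controls.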

Enrichment score, inactive:
ETGEPCRLSPE [EIF4G1_Y311_Y311C] 0.768, LTTEAYEWEPR [ELMOD3_Y61] 1.11, FEPDAYFDLDQ [ELP5_Y302_D303Y_YF] 0.639, SLDLSYYPTSS [EMD_Y181] 1.07, SLDLSYFHTSS [EMD_Y181_P183H_YF] 1.41, LDLSYYPTSSS [EMD_Y182] 1.47, LDLSFYHTSSS [EMD_Y182_P183H_YF] 1.95, SAASSYSFSDL [EMD_Y59] 0.487, FAASSYSFSDL [EMD_Y59_S54F] 1.09

Target: SHP2 C-SH2 domain wild-type
Assay: as above
Conditions: peptide library: pTyr-Var

Enrichment score, inactive:
ETGEPCRLSPE [EIF4G1_Y311_Y311C] 0.658, LTTEAYEWEPR [ELMOD3_Y61] 0.782, FEPDAYFDLDQ [ELP5_Y302_D303Y_YF] 0.691, SLDLSYYPTSS [EMD_Y181] 0.933, SLDLSYFHTSS [EMD_Y181_P183H_YF] 0.975, LDLSYYPTSSS [EMD_Y182] 0.869, LDLSFYHTSSS [EMD_Y182_P183H_YF] 1.23, SAASSYSFSDL [EMD_Y59] 0.77, FAASSYSFSDL [EMD_Y59_S54F] 0.969

Target: SHP2 N-SH2 domain L43F
Assay: as above
Conditions: peptide library: pTyr-Var

Enrichment score, inactive:
ETGEPCRLSPE [EIF4G1_Y311_Y311C] 0.621, LTTEAYEWEPR [ELMOD3_Y61] 1.03, FEPDAYFDLDQ [ELP5_Y302_D303Y_YF] 0.671, SLDLSYYPTSS [EMD_Y181] 0.89, SLDLSYFHTSS [EMD_Y181_P183H_YF] 1.16, LDLSYYPTSSS [EMD_Y182] 1.2, LDLSFYHTSSS [EMD_Y182_P183H_YF] 1.36, SAASSYSFSDL [EMD_Y59] 0.594, FAASSYSFSDL [EMD_Y59_S54F] 1.24

Target: SHP2 N-SH2 domain T42A
Assay: as above
Conditions: peptide library: pTyr-Var

Enrichment score, inactive:
ETGEPCRLSPE [EIF4G1_Y311_Y311C] 0.555, LTTEAYEWEPR [ELMOD3_Y61] 0.755, FEPDAYFDLDQ [ELP5_Y302_D303Y_YF] 0.582, SLDLSYYPTSS [EMD_Y181] 0.794, SLDLSYFHTSS [EMD_Y181_P183H_YF] 1.05, LDLSYYPTSSS [EMD_Y182] 1.28, LDLSFYHTSSS [EMD_Y182_P183H_YF] 1.52, SAASSYSFSDL [EMD_Y59] 0.623, FAASSYSFSDL [EMD_Y59_S54F] 0.823

Target: SHP2 N-SH2 domain T52S
Assay: as above
Conditions: peptide library: pTyr-Var

Enrichment score, inactive:
ETGEPCRLSPE [EIF4G1_Y311_Y311C] 0.573, LTTEAYEWEPR [ELMOD3_Y61] 0.893, FEPDAYFDLDQ [ELP5_Y302_D303Y_YF] 0.604, SLDLSYYPTSS [EMD_Y181] 0.974, SLDLSYFHTSS [EMD_Y181_P183H_YF] 1.22, LDLSYYPTSSS [EMD_Y182] 1.76, LDLSFYHTSSS [EMD_Y182_P183H_YF] 1.4, SAASSYSFSDL [EMD_Y59] 0.529, FAASSYSFSDL [EMD_Y59_S54F] 1.12

Target: SHP2 N-SH2 domain wild-type
Assay: as above
Conditions: peptide library: pTyr-Var

Enrichment score, inactive:
ETGEPCRLSPE [EIF4G1_Y311_Y311C] 0.759, LTTEAYEWEPR [ELMOD3_Y61] 0.929, FEPDAYFDLDQ [ELP5_Y302_D303Y_YF] 0.864, SLDLSYYPTSS [EMD_Y181] 1.02, SLDLSYFHTSS [EMD_Y181_P183H_YF] 0.954, LDLSYYPTSSS [EMD_Y182] 0.899, LDLSFYHTSSS [EMD_Y182_P183H_YF] 1.58, SAASSYSFSDL [EMD_Y59] 0.933, FAASSYSFSDL [EMD_Y59_S54F] 1.19
